According to the supplement of paper PMC12217912:
Some of the results follow. The full chains were built here from the parent and the listed change. Inactive controls read about 0.05.

B1: TEV protease; numbered along this chain (parent)
chain: MGESLFKGPRDYNPISSSICHLTNESDGHTTSLYGIGFGPFIITNKHLFRRNNGTLVVQSLHGVFKVKDTTTLQQHLVDGRDMIIIRMPKDFPPFPQKLKFREPQREERICLVTTNFQTKSMSSMVSDTSCTFPSGDGIFWKHWIQTKDGQCGSPLVSTRDGFIVGIHSASNFTNTNNYFTSVPKNFMELLTNQEAQQWVSGWRLNADSVLWGGHKVFMVKPEEPFQPVKEATQL

Variants of: B1
Test: raw area under fraction-flipped curve 0-4 h after induction (AUC4h, not background-subtracted), DNA-recorder readout of cleavage of the substrate (dimensionless); higher = more cleavage of the substrate by the protease variant
Conditions: temperature: 34 °C; time window: 0-4 h after rhamnose induction
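Note: Bxb1 expression induced with 0.2% (w/v) L-rhamnose at OD600 near 0.5, cultures sampled hourly, flipped fraction per protease–substrate barcode pair counted by paired-end Illumina sequencing.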

## N175G
  area with substrate ENLYCQS: 0.0924
  area with substrate ENLYDQS: 0.0609
  area with substrate ENLYEQS: 0.0539
  area with substrate ENLYGQS: 0.0735
  area with substrate ENLYHQS: 0.0497
  area with substrate ENLYKQS: 0.0691
  area with substrate ENLYMQS: 0.102
  area with substrate ENLYNQS: 0.0399
  area with substrate ENLYPQS: 0.0664
  area with substrate ENLYQQS: 0.058
  area with substrate ENLYRQS: 0.0618
  area with substrate ENLYTQS: 0.0827
  area with substrate ENLYVQS: 0.131
  area with substrate ENLYWQS: 0.0754

## V157W
  area with substrate ENLYCQS: 0.0542
  area with substrate ENLYDQS: 0.0529
  area with substrate ENLYEQS: 0.052
  area with substrate ENLYGQS: 0.046
  area with substrate ENLYHQS: 0.0536
  area with substrate ENLYIQS: 0.0656
  area with substrate ENLYKQS: 0.0325
  area with substrate ENLYMQS: 0.0656
  area with substrate ENLYNQS: 0.0561
  area with substrate ENLYPQS: 0.058
  area with substrate ENLYQQS: 0.0588
  area with substrate ENLYRQS: 0.0548
  area with substrate ENLYVQS: 0.0829
  area with substrate ENLYWQS: 0.0522
  area with substrate ENLYYQS: 0.047

## K98N
  area with substrate ENLYCQS: 0.0982
  area with substrate ENLYDQS: 0.0754
  area with substrate ENLYEQS: 0.0627
  area with substrate ENLYGQS: 0.0843
  area with substrate ENLYHQS: 0.063
  area with substrate ENLYIQS: 0.142
  area with substrate ENLYKQS: 0.0816
  area with substrate ENLYLQS: 0.086
  area with substrate ENLYMQS: 0.0849
  area with substrate ENLYNQS: 0.0761
  area with substrate ENLYPQS: 0.072
  area with substrate ENLYQQS: 0.0656
  area with substrate ENLYRQS: 0.0746
  area with substrate ENLYTQS: 0.0895
  area with substrate ENLYVQS: 0.0999
  area with substrate ENLYWQS: 0.0543
  area with substrate ENLYYQS: 0.0653

## Q234S
  area with substrate ENLYCQS: 0.0971
  area with substrate ENLYDQS: 0.0595
  area with substrate ENLYEQS: 0.0654
  area with substrate ENLYGQS: 0.0637
  area with substrate ENLYHQS: 0.0858
  area with substrate ENLYIQS: 0.109
  area with substrate ENLYKQS: 0.064
  area with substrate ENLYMQS: 0.0814
  area with substrate ENLYNQS: 0.0747
  area with substrate ENLYPQS: 0.0778
  area with substrate ENLYQQS: 0.0621
  area with substrate ENLYSQS: 0.0674
  area with substrate ENLYTQS: 0.0792
  area with substrate ENLYVQS: 0.115
  area with substrate ENLYWQS: 0.0749

## S130V
  area with substrate ENLYCQS: 0.123
  area with substrate ENLYDQS: 0.0652
  area with substrate ENLYEQS: 0.0625
  area with substrate ENLYGQS: 0.066
  area with substrate ENLYHQS: 0.0637
  area with substrate ENLYIQS: 0.122
  area with substrate ENLYKQS: 0.0534
  area with substrate ENLYMQS: 0.0811
  area with substrate ENLYNQS: 0.0694
  area with substrate ENLYRQS: 0.0444
  area with substrate ENLYSQS: 0.0837
  area with substrate ENLYVQS: 0.113
  area with substrate ENLYWQS: 0.0721
  area with substrate ENLYYQS: 0.0508

## F38K
  area with substrate ENLYCQS: 0.0513
  area with substrate ENLYDQS: 0.0489
  area with substrate ENLYEQS: 0.0452
  area with substrate ENLYGQS: 0.0553
  area with substrate ENLYHQS: 0.0466
  area with substrate ENLYIQS: 0.0627
  area with substrate ENLYMQS: 0.0659
  area with substrate ENLYNQS: 0.0528
  area with substrate ENLYPQS: 0.0512
  area with substrate ENLYQQS: 0.0551
  area with substrate ENLYSQS: 0.0549
  area with substrate ENLYVQS: 0.0633
